From article PMC4336329 (PLoS ONE, 2015)
The campaign covered roughly 310,000 compounds. About 2,200 (0.71%) showed an effect of 50% or more. The effect is printed as a negative number. The list shows a part of the results.

Target: human ether-à-go-go-related gene (hERG) potassium channel (human, UniProt Q12809)
Assay: primary screen, population patch clamp on CHO cells stably expressing hERG

Sequence of human ether-à-go-go-related gene (hERG) potassium channel (Q12809 whole entry, looked up): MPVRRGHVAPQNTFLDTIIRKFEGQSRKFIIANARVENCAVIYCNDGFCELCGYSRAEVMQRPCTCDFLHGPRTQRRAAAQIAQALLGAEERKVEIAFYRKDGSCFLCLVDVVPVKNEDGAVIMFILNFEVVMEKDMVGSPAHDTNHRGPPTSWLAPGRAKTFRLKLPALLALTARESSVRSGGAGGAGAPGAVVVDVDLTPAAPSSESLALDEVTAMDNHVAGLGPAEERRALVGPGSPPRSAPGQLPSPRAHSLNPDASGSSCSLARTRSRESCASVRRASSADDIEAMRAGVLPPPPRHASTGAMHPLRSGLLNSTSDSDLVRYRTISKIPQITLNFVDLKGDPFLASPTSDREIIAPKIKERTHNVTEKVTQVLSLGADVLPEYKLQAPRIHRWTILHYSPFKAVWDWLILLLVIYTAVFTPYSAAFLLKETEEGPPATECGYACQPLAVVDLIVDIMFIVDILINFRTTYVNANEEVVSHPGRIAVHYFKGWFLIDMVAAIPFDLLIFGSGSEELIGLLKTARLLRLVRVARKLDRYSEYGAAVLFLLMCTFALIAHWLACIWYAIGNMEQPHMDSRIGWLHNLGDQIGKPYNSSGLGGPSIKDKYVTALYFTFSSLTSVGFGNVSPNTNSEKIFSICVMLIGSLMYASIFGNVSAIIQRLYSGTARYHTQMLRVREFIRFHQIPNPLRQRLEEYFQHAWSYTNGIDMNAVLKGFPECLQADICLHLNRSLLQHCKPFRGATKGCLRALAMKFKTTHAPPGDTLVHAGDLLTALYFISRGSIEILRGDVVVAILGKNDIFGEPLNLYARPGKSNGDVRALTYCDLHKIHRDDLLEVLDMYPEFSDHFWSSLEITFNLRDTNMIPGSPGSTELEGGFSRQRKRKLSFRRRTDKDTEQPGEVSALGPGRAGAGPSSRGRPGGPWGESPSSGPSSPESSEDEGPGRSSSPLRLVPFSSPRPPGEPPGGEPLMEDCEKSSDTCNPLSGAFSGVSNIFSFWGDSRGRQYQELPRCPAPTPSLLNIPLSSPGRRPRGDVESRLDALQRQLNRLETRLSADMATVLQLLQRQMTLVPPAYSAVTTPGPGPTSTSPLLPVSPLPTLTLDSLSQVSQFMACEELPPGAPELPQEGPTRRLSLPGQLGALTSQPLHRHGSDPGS

First: Cn1c(C(=O)N2CCN(c3ccc(F)cc3)CC2)cc2ccccc21
Second: O=C(c1cc(C2CC2)nn1-c1ccccc1)N1CCN(S(=O)(=O)c2cccc(F)c2)CC1
The “hERG current change (%, negative = inhibition) at 1uM” value of the first is higher: 10.2% for the first, -1.87% for the second.

Going from CCS(=O)(=O)c1nc(S(=O)(=O)c2ccc(C)cc2)c(N2CCN(C)CC2)s1 to CCOC(=O)C1CCN(c2cc(=O)n(Cc3ccc(F)cc3)c(=O)[nH]2)CC1, the “hERG current change (%, negative = inhibition) at 1uM” value falls from 15.3% to 5.37%.

First: O=C(C1=C(O)C(=O)N(CC2CCCO2)C1c1ccccc1F)c1ccco1 (stereo not drawn)
Second: C=CCN1C(=O)c2ccccc2Sc2ccc(C(=O)NCCC)cc21
The “hERG current change (%, negative = inhibition) at 1uM” value of the first is higher: 12.8% for the first, 3.36% for the second.

Compared with O=C(Nc1ccc(Br)cn1)c1ccc([N+](=O)[O-])cc1Cl, CNC(=O)c1cccc(NC(=O)c2cc(-c3ccccc3)nc3c2cnn3C(C)C)c1 is lower in “hERG current change (%, negative = inhibition) at 1uM” value: 13.6% for the first, 9.18% for the second.

First: COCCn1c(SCC(=O)NC(=O)NCc2ccccc2)nc2ccccc21
Second: O=C(COC(=O)CCOc1ccccc1)NCc1ccco1
The “hERG current change (%, negative = inhibition) at 1uM” value of the first is lower: 3.8% for the first, 6.28% for the second.

Compared with Nc1cccc2c1C(=O)N(C(=O)/C=C/c1ccc(F)cc1)C2=O, COc1ccc(OCCNC(=O)/C=C/c2ccccc2)cc1 is lower in “hERG current change (%, negative = inhibition) at 1uM” value: 9.8% for the first, 0.454% for the second.

First: CSc1ccc(-c2nc(CSCC(=O)NCCCN3CCOCC3)c(C)o2)cc1
Second: Cc1ccc(S(=O)(=O)N2CCN(C(=O)N3CCOCC3)CC2)c(C)c1
The “hERG current change (%, negative = inhibition) at 1uM” value of the first is higher: 2.68% for the first, 2.62% for the second.

First: CCOCCCN(C)C1CCN(C(=O)c2oc3ccccc3c2NC(=O)c2ccc([N+](=O)[O-])cc2)CC1
Second: COC(=O)c1cn(C(=O)c2ccc(C)c(C)c2)c2ccccc12
The “hERG current change (%, negative = inhibition) at 1uM” value of the first is lower: -85.2% for the first, 8.65% for the second.

First: CC(C)COc1ccc(C(=O)OCC(=O)N(C)CC(=O)Nc2ccc(F)cc2)cc1
Second: COC(=O)c1ccccc1NC(=O)c1cc[n+](C)cc1
The “hERG current change (%, negative = inhibition) at 1uM” value of the first is lower: 7.02% for the first, 13.2% for the second.

Compared with CC1(C)CC(=O)c2c(nc(SCC(=O)Nc3nsc(-c4ccccc4)n3)c(C#N)c2-c2ccccc2)C1, COc1cccc(CNC(=O)CCC2CCCN(Cc3ccc(OC(F)F)cc3)C2)c1 (stereo not drawn) is lower in “hERG current change (%, negative = inhibition) at 1uM” value: 6.13% for the first, -80.1% for the second.

Going from COCCCn1c(SCC(=O)NC2CCCC2)nnc1-c1ccncc1 to O=C(CN1C(=O)NC2(CCCCC2)C1=O)N(Cc1ccco1)Cc1cccs1, the “hERG current change (%, negative = inhibition) at 1uM” value falls from 11.5% to -3.33%.

Going from CCOC(=O)c1nn(-c2ccc(Cl)cc2)cc1O to C1CCCC(N2CCNCC2)CC1.Cl, the “hERG current change (%, negative = inhibition) at 1uM” value rises from -5.52% to 11.1%.
